# Data reported in PubChem BioAssay AID485294 (National Center for Advancing Translational Sciences (NCATS), 2010).
# Among all 370,000 compounds or so, about 150 (0.041%) were called active. This list was built around the results that the source calls inconclusive (neither active nor inactive); the mix of calls is not that of the screen. Calls come from the whole dose curve; as a rule, active = well fitted inhibition curve with a large enough effect; inconclusive = small, poorly fitted or top-dose-only effect; inactive = flat fitted curve, though single readings scatter. Potencies of inconclusive entries are left out as doubtful fits.
# Biological target: Beta-lactamase (Escherichia coli (strain K12)) (UniProt P00811)
# Chain of UniProt P00811 (P00811 whole entry, looked up): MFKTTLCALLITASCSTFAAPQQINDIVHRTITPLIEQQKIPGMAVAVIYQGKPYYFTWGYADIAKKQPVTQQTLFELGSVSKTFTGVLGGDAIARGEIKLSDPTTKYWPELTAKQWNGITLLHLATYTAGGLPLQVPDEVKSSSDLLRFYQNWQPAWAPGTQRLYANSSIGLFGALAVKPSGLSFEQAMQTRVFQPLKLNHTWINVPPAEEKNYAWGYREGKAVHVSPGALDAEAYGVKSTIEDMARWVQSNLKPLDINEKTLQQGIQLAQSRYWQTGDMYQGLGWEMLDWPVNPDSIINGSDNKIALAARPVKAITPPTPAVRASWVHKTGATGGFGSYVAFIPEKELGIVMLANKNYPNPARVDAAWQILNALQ
# Assay: qHTS Inhibitors of AmpC Beta-Lactamase (assay with detergent); note: nearly all actives have a fitted effect of over 25% in size;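 for activity change, negative = inhibition: 0% = no-compound wells and -100% = no-enzyme wells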
# Conditions: AmpC hydrolysis of nitrocefin, absorbance 480 nm, 0.01% Triton; activity change, negative = inhibition: at 114 µM (top of the series)
# Method in brief: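 20 mM phosphate pH 7.0 + 0.01% (detergent screen) or 0.0001% Triton X-100; 5.3 nM AmpC reagent; cpd preinc 15 min RT; nitrocefin (800 uM stock) to start; A480 q20 s × 4 min; Activity was normalised to no-enzyme and no-compound control wells.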
# Potency is the fitted concentration of half-maximal effect; tags give direction and shape of the fitted curve.
Compound,"activity change, negative = inhibition",Potency
COc1ccc(C(=O)/C=C/NCc2ccc(F)cc2)cc1OC,inactive: 10.4%,–
CCCCc1nn2c(=O)cc(COC(=O)c3ccccc3NC(=O)c3cccs3)nc2s1,inactive: 11.1%,–
Cc1ccc(NC(=O)CSc2ccc(-c3ccc4c(c3)OCO4)nn2)cc1F,–,"inconclusive [inhibitor, partial curve]"
COc1ccc(-c2noc(CCC(=O)NC3CCCCC3)n2)cc1,–,"inconclusive [inhibitor, full curve, poor fit]"
CCOC(=O)c1nnn(-c2nonc2N)c1CN(CC)c1ccccc1,–,"inconclusive [inhibitor, single point]"
CCCCOc1cccc(C2C(C(=O)c3ccc(C)o3)=C(O)C(=O)N2Cc2ccco2)c1 (stereo not given),–,"inconclusive [inhibitor, partial curve, poor fit]"
CCN(C(=O)CSc1nnc(Cn2nnc3ccccc32)o1)c1nc(-c2ccccc2)cs1,–,"inconclusive [inhibitor, full curve, poor fit]"
COc1ccc(Br)cc1/C(C)=N/NC1=NCCN1,inactive: 2.03%,–
N#Cc1ccc(OCC(=O)Nc2cc(S(=O)(=O)N3CCCCC3)ccc2N2CCCCC2)cc1,–,"inconclusive [inhibitor, partial curve]"
Cn1c(C(=O)NCC2CCCO2)cc2c(=O)n3ccccc3nc21 (stereo not given),–,"inconclusive [inhibitor, full curve]"
CN1CCN(c2ccccc2NC(=O)c2ccc(N3CCCC3)c([N+](=O)[O-])c2)CC1,inactive: -8.74%,–
CCC(=O)N1CCc2cc(Br)cc(S(=O)(=O)N3CCC(C(=O)Nc4ccccc4F)CC3)c21,inactive: 16.7%,–
CCN1CCN(C(c2ccc(OC)cc2)c2nnnn2Cc2ccc3c(c2)OCO3)CC1 (stereo not given),–,"inconclusive [inhibitor, single point]"
COC(=O)C1=C(O)/C(=C\c2ccc(OCC(=O)Nc3ccccc3)cc2)N=C1C,inactive: -1.87%,–
CCCCNc1ccc(C(=O)OCCN(C)C)cc1,–,"inconclusive [inhibitor, single point]"
O=C(CSCc1ccc(Br)cc1)N1CCCC1,inactive: -3.98%,–
COC(=O)c1sccc1NC(=O)Cc1ccc(Br)cc1,–,"inconclusive [inhibitor, partial curve]"
CCCC12CN3CC(C)(CN(C1)C3c1ccc(OC)cc1)C2=O (stereo not given),–,"inconclusive [inhibitor, full curve, poor fit]"
Cc1ccc(C(=O)Nc2nnc(S(=O)(=O)N3CCCCCC3)s2)cc1,–,"inconclusive [inhibitor, single point]"
CC(=O)Nc1ccc(-c2nnc3n(Cc4ccc(C)cc4)c(=O)c4ccccc4n23)cc1,inactive: 12.4%,–
O=C(CSc1nncs1)N1CCN(S(=O)(=O)c2ccccc2)CC1,–,"inconclusive [inhibitor, full curve, poor fit]"
COc1ccc(S(=O)(=O)N(C)CC(=O)Nc2ccc3c(c2)OCCO3)cc1,–,"inconclusive [inhibitor, full curve, poor fit]"
CCc1cccc(CC)c1NC(=O)COC(=O)c1cccc(S(=O)(=O)N2CCc3ccccc3C2)c1,inactive: -1.22%,–
CCOC(=O)N1CCC(NS(=O)(=O)c2ccccc2)CC1,inactive: 5.35%,–

Compound,"activity change, negative = inhibition",Potency
COc1ccc(S(=O)(=O)CCC(=O)N2CCN(c3ccc(C(C)=O)cc3)CC2)cc1,inactive: -3.46%,–
COc1cccc(N=CC2=C(O)CCCC2=O)c1,inactive: 5.14%,–
CC(=NCc1ccco1)c1c(O)n(-c2ccccc2C)c(=O)[nH]c1=O,inactive: -10.3%,–
CCn1c(C)nc2cc(C(=O)N/N=C/c3ccc(OC)cc3)ccc21,–,"inconclusive [inhibitor, full curve, poor fit]"
CCc1ccc(-c2cc(C)no2)cc1S(=O)(=O)N1CCN(C(=O)c2ccco2)CC1,inactive: -1.31%,–
COc1ccc(OCc2cc(C(=O)NC3Cc4ccccc4C3)no2)c(Cl)c1,inactive: -0.747%,–
Cn1c(N)c(C(=O)CSc2ccccn2)c(=O)n(C)c1=O,–,"inconclusive [inhibitor, partial curve]"
COC(=O)C1Cc2ccccc2CN1C(=O)CCl (stereo not given),–,"inconclusive [inhibitor, full curve, poor fit]"
Cc1ccc(NC(=O)c2cnc(SCC(=O)N3CCCc4ccccc43)n(C)c2=O)cc1,inactive: 5.52%,–
CCOC(=O)N1CCC(N2C(=O)c3ccccc3C2Nc2ccccc2C)CC1 (stereo not given),–,"inconclusive [inhibitor, full curve, poor fit]"
COC(=O)c1c(NC(=O)C(=O)NCCCN2CCOCC2)sc2c1CCCC2,–,"inconclusive [inhibitor, partial curve, poor fit]"
CC(C)(C)OC(=O)N1CCC(c2c(C(=O)N3CCN(c4ccccc4F)CC3)cnn2-c2ccccc2Cl)CC1,inactive: -2.8%,–
Cc1ccc(S(=O)(=O)CCNC(=O)Cc2ccccc2)cc1,inactive: -12.7%,–
Cc1ccc2c(c1)N(CCC(=O)NCC1CCCO1)C(=O)CO2 (stereo not given),–,"inconclusive [inhibitor, full curve]"
CCN(CC(=O)Nc1ccc(S(=O)(=O)N2CCOCC2)cc1)Cc1ccccc1,–,"inconclusive [inhibitor, partial curve, poor fit]"
Nc1nc(C23CC4CCC(CC(C4)C2)C3)cs1,–,"inconclusive [inhibitor, partial curve, poor fit]"
CC(C)CNC(=O)c1cccc(NC(=O)Cc2ccc(Cl)cc2)c1,–,"inconclusive [inhibitor, full curve, poor fit]"
COc1ccc(C(=O)NCc2cc(C)nc3ccccc23)cc1OC,–,"inconclusive [inhibitor, single point]"
CCOC(=O)c1c(C)nc2c(c(SC)nn2-c2ccccc2)c1N,–,"inconclusive [inhibitor, full curve, poor fit]"
Cc1ccc(/C=C(\C#N)c2nc3ccccc3[nH]2)s1,inactive: 42.9%,–
Cn1c(CO)nc2cc(N)ccc21,inactive: -0.945%,–
Cc1c(OCC(=O)NCC(O)c2ccccc2)ccc2c(-c3ccccc3)cc(=O)oc12 (stereo not given),–,"inconclusive [inhibitor, full curve]"
CC(=O)Nc1c(C)nn(-c2ccccc2)c1N1CCC(C(=O)NCc2cccc(Cl)c2)CC1,inactive: 9.94%,–
O=C1NC(c2ccccc2)(C(F)(F)F)SC2=CCCCCN12 (stereo not given),–,"inconclusive [inhibitor, full curve]"

Compound,"activity change, negative = inhibition",Potency
CN(CCO)S(=O)(=O)c1ccc2c(c1)C(=O)c1cc(S(=O)(=O)N(C)CCO)ccc1-2,–,"inconclusive [inhibitor, full curve]"
COc1cc2ccccc2cc1C(=O)N1CCCCC1,–,"inconclusive [inhibitor, full curve, poor fit]"
O=C1c2ccccc2C(=O)C1c1ccnc2ccccc12,–,"inconclusive [inhibitor, partial curve, poor fit]"
Nc1nc(-c2ccccc2)cc(-c2ccccc2)n1,–,"inconclusive [inhibitor, full curve, poor fit]"
Cc1nnc(SCC(=O)N2CCN(c3ccccc3)CC2)n1C1CC1,–,"inconclusive [inhibitor, full curve, poor fit]"
Cc1cc(OCC(=O)OCC(=O)N(C)c2c(N)n(Cc3ccccc3)c(=O)[nH]c2=O)ccc1Cl,inactive: -5.61%,–
O=C(c1cc2ncc(CCCl)cn2n1)N1CCCCCC1,inactive: -3.42%,–
Cc1oc(-c2cccc(Cl)c2)nc1CN1CCC(C(=O)N2CCN(c3ccccc3F)CC2)CC1,inactive: 6.74%,–
Cc1sc2nc(C3CC3)nc(SCC(=O)NCc3ccco3)c2c1C,–,"inconclusive [inhibitor, partial curve, poor fit]"
O=C1CCc2cc(S(=O)(=O)N3CCCC3C(=O)NC3CCCCCCC3)ccc2N1 (stereo not given),–,"inconclusive [inhibitor, partial curve]"
CCC(C(=O)Nc1cnccn1)c1ccccc1 (stereo not given),–,"inconclusive [inhibitor, partial curve]"
O=C(CN1C(=O)NC2(CCCc3ccccc32)C1=O)NCc1cccs1 (stereo not given),–,"inconclusive [inhibitor, partial curve, poor fit]"
COc1ccc(C)cc1N(CC(=O)N1CCCCCC1)S(C)(=O)=O,–,"inconclusive [inhibitor, full curve, poor fit]"
O=[N+]([O-])c1ccc2nc(-c3ccncc3)[nH]c2c1,inactive: -1.57%,–
O=C1[C@H]2[C@@H](c3ccc(F)cc3)N3C(=O)N(c4ccc(C(F)(F)F)cc4)C(=O)[C@@]3(Cc3ccccc3)[C@H]2C(=O)N1C1CCCCC1,–,"inconclusive [inhibitor, full curve, poor fit]"
Cc1cccc(N(CC(=O)NC2CCCCC2)C(=O)CCC(=O)Nc2nccs2)c1,–,"inconclusive [inhibitor, full curve, poor fit]"
COc1ccc(CCC(=O)Nc2ccc(Br)cn2)cc1,inactive: -7.06%,–
CC(=O)Nc1ccc(Br)c(Cl)c1,inactive: 6.24%,–
COc1ccc(NS(=O)(=O)c2cc(C)ccc2C)cc1,–,"inconclusive [inhibitor, full curve, poor fit]"
COc1ccc(CCNc2ncnc3nc[nH]c23)cc1OC,–,"inconclusive [inhibitor, partial curve, poor fit]"
CCCOc1ccc(-c2cn3ccccc3n2)cc1,–,"inconclusive [inhibitor, full curve]"
CSCSC1=C(C#N)C(c2ccccc2Cl)C(C(C)=O)=C(C)N1 (stereo not given),–,"inconclusive [inhibitor, partial curve, poor fit]"
